# In the supplement of paper PMC12423691:
# Some of the results follow. Binding of human transcription factors and regulators to the viral nucleoprotein by AlphaScreen, crude cell-free proteins, amounts not normalised, one pass. Fold of the Venus control; higher = more signal. No active / inactive call. Single-pass screen; sequences are the whole Swiss-Prot entries looked up by name.
# B1: GTF2IRD1, Q9UHL9 (protein)
# chain: MALLGKRCDVPTNGCGPDRWNSAFTRKDEIITSLVSALDSMCSALSKLNAEVACVAVHDESAFVVGTEKGRMFLNARKELQSDFLRFCRGPPWKDPEAEHPKKVQRGEGGGRSLPRSSLEHGSDVYLLRKMVEEVFDVLYSEALGRASVVPLPYERLLREPGLLAVQGLPEGLAFRRPAEYDPKALMAILEHSHRIRFKLKRPLEDGGRDSKALVELNGVSLIPKGSRDCGLHGQAPKVPPQDLPPTATSSSMASFLYSTALPNHAIRELKQEAPSCPLAPSDLGLSRPMPEPKATGAQDFSDCCGQKPTGPGGPLIQNVHASKRILFSIVHDKSEKWDAFIKETEDINTLRECVQILFNSRYAEALGLDHMVPVPYRKIACDPEAVEIVGIPDKIPFKRPCTYGVPKLKRILEERHSIHFIIKRMFDERIFTGNKFTKDTTKLEPASPPEDTSAEVSRATVLDLAGNARSDKGSMSEDCGPGTSGELGGLRPIKIEPEDLDIIQVTVPDPSPTSEEMTDSMPGHLPSEDSGYGMEMLTDKGLSEDARPEERPVEDSHGDVIRPLRKQVELLFNTRYAKAIGISEPVKVPYSKFLMHPEELFVVGLPEGISLRRPNCFGIAKLRKILEASNSIQFVIKRPELLTEGVKEPIMDSQGTASSLGFSPPALPPERDSGDPLVDESLKRQGFQENYDARLSRIDIANTLREQVQDLFNKKYGEALGIKYPVQVPYKRIKSNPGSVIIEGLPPGIPFRKPCTFGSQNLERILAVADKIKFTVTRPFQGLIPKPDEDDANRLGEKVILREQVKELFNEKYGEALGLNRPVLVPYKLIRDSPDAVEVTGLPDDIPFRNPNTYDIHRLEKILKAREHVRMVIINQLQPFAEICNDAKVPAKDSSIPKRKRKRVSEGNSVSSSSSSSSSSSSNPDSVASANQISLVQWPMYMVDYAGLNVQLPGPLNY
# B2: DMRTC1B, Q5HYR2 (protein)
# chain: MAAPPKAPIRVRNLTIRAGALTGKENNMLQPETHIFTAPEEGSSQGALLLGQAPEPLSLPCTPVTLEQQLVSPSGDPHRAPALPSICSTLILQPCATLDPLLLQPQVPKVSDQALVSAHSEWQRKLEAAEALLTLRNSAQAPPDSISLHQPCNPPAPAGDKGFQPPSPSLRPRPASSISLPIGHLGCISLLS
# B3: FOXJ1, Q92949 (protein)
# chain: MAESWLRLSGAGPAEEAGPEGGLEEPDALDDSLTSLQWLQEFSILNAKAPALPPGGTDPHGYHQVPGSAAPGSPLAADPACLGQPHTPGKPTSSCTSRSAPPGLQAPPPDDVDYATNPHVKPPYSYATLICMAMQASKATKITLSAIYKWITDNFCYFRHADPTWQNSIRHNLSLNKCFIKVPREKDEPGKGGFWRIDPQYAERLLSGAFKKRRLPPVHIHPAFARQAAQEPSAVPRAGPLTVNTEAQQLLREFEEATGEAGWGAGEGRLGHKRKQPLPKRVAKVPRPPSTLLPTPEEQGELEPLKGNFDWEAIFDAGTLGGELGALEALELSPPLSPASHVDVDLTIHGRHIDCPATWGPSVEQAADSLDFDETFLATSFLQHPWDESGSGCLPPEPLFEAGDATLASDLQDWASVGAFL
# B4: ATF6B, Q99941 (protein)
# chain: MAELMLLSEIADPTRFFTDNLLSPEDWGLQNSTLYSGLDEVAEEQTQLFRCPEQDVPFDGSSLDVGMDVSPSEPPWELLPIFPDLQVKSEPSSPCSSSSLSSESSRLSTEPSSEALGVGEVLHVKTESLAPPLCLLGDDPTSSFETVQINVIPTSDDSSDVQTKIEPVSPCSSVNSEASLLSADSSSQAFIGEEVLEVKTESLSPSGCLLWDVPAPSLGAVQISMGPSLDGSSGKALPTRKPPLQPKPVVLTTVPMPSRAVPPSTTVLLQSLVQPPPVSPVVLIQGAIRVQPEGPAPSLPRPERKSIVPAPMPGNSCPPEVDAKLLKRQQRMIKNRESACQSRRKKKEYLQGLEARLQAVLADNQQLRRENAALRRRLEALLAENSELKLGSGNRKVVCIMVFLLFIAFNFGPVSISEPPSAPISPRMNKGEPQPRRHLLGFSEQEPVQGVEPLQGSSQGPKEPQPSPTDQPSFSNLTAFPGGAKELLLRDLDQLFLSSDCRHFNRTESLRLADELSGWVQRHQRGRRKIPQRAQERQKSQPRKKSPPVKAVPIQPPGPPERDSVGQLQLYRHPDRSQPAFLDAIDRREDTFYVVSFRRDHLLLPAISHNKTSRPKMSLVMPAMAPNETLSGRGAPGDYEEMMQIECEVMDTRVIHIKTSTVPPSLRKQPSPTPGNATGGPLPVSAASQAHQASHQPLYLNHP
# B5: LZTS1, Q9Y250 (protein)
# chain: MGSVSSLISGHSFHSKHCRASQYKLRKSSHLKKLNRYSDGLLRFGFSQDSGHGKSSSKMGKSEDFFYIKVSQKARGSHHPDYTALSSGDLGGQAGVDFDPSTPPKLMPFSNQLEMGSEKGAVRPTAFKPVLPRSGAILHSSPESASHQLHPAPPDKPKEQELKPGLCSGALSDSGRNSMSSLPTHSTSSSYQLDPLVTPVGPTSRFGGSAHNITQGIVLQDSNMMSLKALSFSDGGSKLGHSNKADKGPSCVRSPISTDECSIQELEQKLLEREGALQKLQRSFEEKELASSLAYEERPRRCRDELEGPEPKGGNKLKQASQKSQRAQQVLHLQVLQLQQEKRQLRQELESLMKEQDLLETKLRSYEREKTSFGPALEETQWEVCQKSGEISLLKQQLKESQTEVNAKASEILGLKAQLKDTRGKLEGLELRTQDLEGALRTKGLELEVCENELQRKKNEAELLREKVNLLEQELQELRAQAALARDMGPPTFPEDVPALQRELERLRAELREERQGHDQMSSGFQHERLVWKEEKEKVIQYQKQLQQSYVAMYQRNQRLEKALQQLARGDSAGEPLEVDLEGADIPYEDIIATEI
# B6: LTF, P02788 (protein)
# chain: MKLVFLVLLFLGALGLCLAGRRRSVQWCAVSQPEATKCFQWQRNMRKVRGPPVSCIKRDSPIQCIQAIAENRADAVTLDGGFIYEAGLAPYKLRPVAAEVYGTERQPRTHYYAVAVVKKGGSFQLNELQGLKSCHTGLRRTAGWNVPIGTLRPFLNWTGPPEPIEAAVARFFSASCVPGADKGQFPNLCRLCAGTGENKCAFSSQEPYFSYSGAFKCLRDGAGDVAFIRESTVFEDLSDEAERDEYELLCPDNTRKPVDKFKDCHLARVPSHAVVARSVNGKEDAIWNLLRQAQEKFGKDKSPKFQLFGSPSGQKDLLFKDSAIGFSRVPPRIDSGLYLGSGYFTAIQNLRKSEEEVAARRARVVWCAVGEQELRKCNQWSGLSEGSVTCSSASTTEDCIALVLKGEADAMSLDGGYVYTAGKCGLVPVLAENYKSQQSSDPDPNCVDRPVEGYLAVAVVRRSDTSLTWNSVKGKKSCHTAVDRTAGWNIPMGLLFNQTGSCKFDEYFSQSCAPGSDPRSNLCALCIGDEQGENKCVPNSNERYYGYTGAFRCLAENAGDVAFVKDVTVLQNTDGNNNEAWAKDLKLADFALLCLDGKRKPVTEARSCHLAMAPNHAVVSRMDKVERLKQVLLHQQAKFGRNGSDCPDKFCLFQSETKNLLFNDNTECLARLHGKTTYEKYLGPQYVAGITNLKKCSTSPLLEACEFLRK
# B7: ZBTB25, P24278 (protein)
# chain: MDTASHSLVLLQQLNMQREFGFLCDCTVAIGDVYFKAHRAVLAAFSNYFKMIFIHQTSECIKIQPTDIQPDIFSYLLHIMYTGKGPKQIVDHSRLEEGIRFLHADYLSHIATEMNQVFSPETVQSSNLYGIQISTTQKTVVKQGLEVKEAPSSNSGNRAAVQGDHPQLQLSLAIGLDDGTADQQRACPATQALEEHQKPPVSIKQERCDPESVISQSHPSPSSEVTGPTFTENSVKIHLCHYCGERFDSRSNLRQHLHTHVSGSLPFGVPASILESNDLGEVHPLNENSEALECRRLSSFIVKENEQQPDHTNRGTTEPLQISQVSLISKDTEPVELNCNFSFSRKRKMSCTICGHKFPRKSQLLEHMYTHKGKSYRYNRCQRFGNALAQRFQPYCDSWSDVSLKSSRLSQEHLDLPCALESELTQENVDTILVE
# B8: FOXN2, P32314 (protein)
# chain: MGPVIGMTPDKRAETPGAEKIAGLSQIYKMGSLPEAVDAARPKATLVDSESADDELTNLNWLHESTNLLTNFSLGSEGLPIVSPLYDIEGDDVPSFGPACYQNPEKKSATSKPPYSFSLLIYMAIEHSPNKCLPVKEIYSWILDHFPYFATAPTGWKNSVRHNLSLNKCFQKVERSHGKVNGKGSLWCVDPEYKPNLIQALKKQPFSSASSQNGSLSPHYLSSVIKQNQVRNLKESDIDAAAAMMLLNTSIEQGILECEKPLPLKTALQKKRSYGNAFHHPSAVRLQESDSLATSIDPKEDHNYSASSMAAQRCASRSSVSSLSSVDEVYEFIPKNSHVGSDGSEGFHSEEDTDVDYEDDPLGDSGYASQPCAKISEKGQSGKKMRKQTCQEIDEELKEAAGSLLHLAGIRTCLGSLISTAKTQNQKQRKK
# B9: NPAS2, Q99743 (protein)
# chain: MDEDEKDRAKRASRNKSEKKRRDQFNVLIKELSSMLPGNTRKMDKTTVLEKVIGFLQKHNEVSAQTEICDIQQDWKPSFLSNEEFTQLMLEALDGFIIAVTTDGSIIYVSDSITPLLGHLPSDVMDQNLLNFLPEQEHSEVYKILSSHMLVTDSPSPEYLKSDSDLEFYCHLLRGSLNPKEFPTYEYIKFVGNFRSYNNVPSPSCNGFDNTLSRPCRVPLGKEVCFIATVRLATPQFLKEMCIVDEPLEEFTSRHSLEWKFLFLDHRAPPIIGYLPFEVLGTSGYDYYHIDDLELLARCHQHLMQFGKGKSCCYRFLTKGQQWIWLQTHYYITYHQWNSKPEFIVCTHSVVSYADVRVERRQELALEDPPSEALHSSALKDKGSSLEPRQHFNTLDVGASGLNTSHSPSASSRSSHKSSHTAMSEPTSTPTKLMAEASTPALPRSATLPQELPVPGLSQAATMPAPLPSPSSCDLTQQLLPQTVLQSTPAPMAQFSAQFSMFQTIKDQLEQRTRILQANIRWQQEELHKIQEQLCLVQDSNVQMFLQQPAVSLSFSSTQRPEAQQQLQQRSAAVTQPQLGAGPQLPGQISSAQVTSQHLLRESSVISTQGPKPMRSSQLMQSSGRSGSSLVSPFSSATAALPPSLNLTTPASTSQDASQCQPSPDFSHDRQLRLLLSQPIQPMMPGSCDARQPSEVSRTGRQVKYAQSQTVFQNPDAHPANSSSAPMPVLLMGQAVLHPSFPASQPSPLQPAQARQQPPQHYLQVQAPTSLHSEQQDSLLLSTYSQQPGTLGYPQPPPAQPQPLRPPRRVSSLSESSGLQQPPR
# Target: nucleoprotein N of Crimean-Congo hemorrhagic fever virus
# Test: AlphaScreen luminescence signal relative to Venus negative control (fold); higher = stronger binding to CCHFV N
# Description: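 AlphaScreen binding of cell-free made, FLAG-GST-tagged human transcription factors and regulators (crude translation products) to biotinylated N protein; signal as fold of the FLAG-GST-Venus control. One pass.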
row,Binder,AlphaScreen luminescence signal
1,B1,3.91
2,B2,1.3
3,B3,2.14
4,B4,2.98
5,B5,1.49
6,B6,2.88
7,B7,1.91
8,B8,2.6
9,B9,1.77
